According to the supplement of paper PMC10600219:
Structures can show the parent of a compound that is named as a salt. Over roughly 2,800 compounds, “cell viability relative to vehicle” has its median near 0.98; the lowest 2% begin near 0.45. The list shows a part of the results.

System: NCI-H2228 alectinib-DTP
Assay: cell viability relative to vehicle (fraction of vehicle); NCI-H2228 is an ALK-positive lung cancer line and DTP means drug-tolerant persister; higher = less growth inhibition
Conditions: 100 nM; treatment time 6 days
Summary of the method: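 Each value is viability relative to vehicle-treated cells, measured as ATP with the CellTiter-Glo 3D Cell Viability Assay. Parental NCI-H2228 cells and drug-tolerant persisters (1000 nM targeted drug, 13 days) in 384-well plates received the 3114-agent TargetMol anti-cancer compound library at 100 nM, or DMSO, and were read 6 days later.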

SMILES | cell viability
COc1ccc2c(c1OC)CN1CCc3cc4c(cc3C1C2)OCO4 (stereo unspecified) [Tetrahydroberberine THB] | 1.01
O=C(O)CNC(=O)C1C(=O)N(C2CCCCC2)C(=O)N(C2CCCCC2)C1=O [Daprodustat] | 0.908
Oc1cc(O)cc(/C=C/c2c(O)cccc2O)c1 [Gnetol] | 0.91
CC(=O)O[C@H]1CC[C@@]2(C)C(=CC[C@@H]3[C@@H]2CC[C@]2(C)C(=O)CC[C@@H]32)C1 [Dehydroepiandrosterone acetate] | 0.856
CC(C)OC(=O)[C@H](C)N[P@](=O)(CO[C@H](C)Cn1cnc2c(N)ncnc21)Oc1ccccc1 [Tenofovir alafenamide] | 0.829
COc1cc([C@@H]2c3cc4c(cc3[C@H](O)[C@H]3COC(=O)[C@H]23)OCO4)cc(OC)c1O [4'-Demethylpodophyllotoxin] | 1.1
CN1C[C@H](CNC(=O)OCc2ccccc2)C[C@@H]2c3cccc4c3c(cn4C)C[C@H]21 [Metergoline] | 1.07
C[C@H](CS(C)(=O)=O)n1ccc2c(C(F)(F)F)c(C#N)ccc21 | 1.09
CC(C)c1cccc(C(C)C)c1O [Propofol] | 1.08
COc1c(C)c(O)cc2[o+]c(-c3ccccc3)ccc12.[O-][Cl+3]([O-])([O-])[O-] [Dracorhodin perochlorate] | 1.25
C=C1C2CC3(C1O)C1CC4C5(C)CCC(O)C4(C1N(CC)C5)C3CC2=O (stereo unspecified) [Napellonine] | 0.931
Oc1cc(O)cc(/C=C/c2ccc(O)cc2O)c1 [Oxyresveratrol] | 0.952
C=C1C[C@@H]2[C@H](CC[C@]3(C)C(=O)CC[C@@H]23)[C@@]2(C)C=CC(=O)C=C12 [Exemestane] | 0.791
O=P1(N(CCCl)CCCl)NCCCO1 (stereo unspecified) [Cyclophosphamide monohydrate] | 1.27
Cn1c(CCCCCCC(=O)NO)nc2cc(N(CCCl)CCCl)ccc21 [Minomustine] | 0.926
CCCCCc1cc(O)cc(O)c1 [Olivetol] | 0.931
CN1CCN(c2cccc3[nH]c(=O)oc23)CC1 [Pardoprunox hydrochloride] | 0.925
COP(=S)(OC)Oc1ccc(Sc2ccc(OP(=S)(OC)OC)cc2)cc1 [Temephos] | 1.18
C[C@@]1(C(=O)O)CC[C@]2(C)CC[C@]3(C)C4=CC(=O)c5c(cc(O)c(O)c5C=O)[C@]4(C)CC[C@@]3(C)[C@@H]2C1 [Demethylzeylasteral] | 0.869
COc1ccc(/C=C2\CCCN=C2c2cccnc2)c(OC)c1 [GTS 21 dihydrochloride] | 0.871
COc1ccc(OC)c(C(O)C(C)N)c1 (stereo unspecified) [Methoxamine hydrochloride] | 1.19
